Among the data in the supplement of paper PMC4495339 are reporter virus infection values, retold here.

The list shows a part of the results. Reporter virus signal in Vero cells at 10 µM drug, 24 h, as % of DMSO wells; lower = more inhibition (cell loss is not separated). No active / inactive call. One pass, one plate of the library.

The assay deals with Rift Valley fever virus MP-12 vaccine strain (luciferase reporter) in Vero cells. The experiment in a line: reporter virus infection (Renilla luciferase) relative to DMSO control (% of DMSO); higher = less inhibition of virus replication. To be noted: 10 µM; time (h post infection): 24. How it is done: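 Vero cells were pretreated for 1 h with 10 µM drug and kept in drug after infection with the reporter virus; luciferase at 24 h as % of DMSO wells. One pass, one plate of the library.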
`CN(C)CCc1c[nH]c2ccc(Cn3cncn3)cc12` [Rizatriptan Benzoate (Maxalt)] showed a reporter virus infection of 73.9.
To `CCCCC1C(=O)N(c2ccccc2)N(c2ccccc2)C1=O` [Phenylbutazone (Butazolidin, Butatron)] belongs 95.1; to `CC(=O)N[C@@H](CS)C(=O)O` [Acetylcysteine], 66.2.
For the molecule `C=CC1=C(C(=O)O)N2C(=O)[C@@H](NC(=O)/C(=N\O)c3csc(N)n3)[C@H]2SC1` [Cefdinir (Omnicef)], the reporter virus infection was found to be 46.8.
With `CN(C)C(=O)Oc1ccc[n+](C)c1` [Pyridostigmine Bromide (Mestinon)] the figure was 50.7.
`CC1Cc2ccccc2N1NC(=O)c1ccc(Cl)c(S(N)(=O)=O)c1` (stereo not given) [Indapamide (Lozol)] gave a reporter virus infection of 66.4.
With `CCCCCCCCCCC[C@@H](C[C@@H]1OC(=O)[C@H]1CCCCCC)OC(=O)[C@H](CC(C)C)NC=O` [Orlistat (Alli, Xenical)] the figure was 82.4; with `O=C(c1ccccc1)c1ccc2n1CCC2C(=O)O` (stereo not given) [Ketorolac (Toradol)], 92.1; with `Nc1ccn([C@@H]2CS[C@H](CO)O2)c(=O)n1` [Lamivudine (Epivir)], 102.
To `O=C(N[C@H](CO)[C@H](O)c1ccc([N+](=O)[O-])cc1)C(Cl)Cl` [Chloramphenicol (Chloromycetin)] belongs 73.3.
In the case of `CC(C)Cc1ccc(C(C)C(=O)O)cc1` (stereo not given) [Ibuprofen (Advil)], the reporter virus infection worked out at 84.6.
On to `CC(=O)[C@H]1CC[C@H]2[C@@H]3CCC4=CC(=O)CC[C@]4(C)[C@H]3CC[C@]12C` [Progesterone (Prometrium)], for which the reporter virus infection is 90.6.
As for `Nc1nc(=O)[nH]cc1F` [Flucytosine (Ancobon)], the reporter virus infection stood at 79.
Turning to `CCCSc1ccc2[nH]c(NC(=O)OC)nc2c1` [Albendazole (Albenza)], the reporter virus infection was 20.7.
`CC(C)[N+]1(C)[C@@H]2CC[C@H]1C[C@@H](OC(=O)C(CO)c1ccccc1)C2` (stereo not given in full) [Ipratropium bromide]: the reporter virus infection came out at 92.4.
To `Cc1cccc(Nc2ccncc2S(=O)(=O)NC(=O)NC(C)C)c1` [Torsemide (Demadex)] belongs 94.1.
In the case of `C[C@]12CC[C@@H]3c4ccc(O)cc4CC[C@H]3[C@@H]1CCC2=O` [Estrone], the reporter virus infection stood at 84.
`CCCCC(=O)O[C@]1(C(=O)CO)[C@@H](C)C[C@H]2[C@@H]3CCC4=CC(=O)C=C[C@]4(C)[C@@]3(F)[C@@H](O)C[C@@]21C` [Betamethasone valerate (Betnovate)]: the reporter virus infection came to 101.
On to `COc1cnc(NS(=O)(=O)c2ccc(N)cc2)nc1` [Sulfameter (Bayrena)], for which the reporter virus infection turned out to be 67.1.
`Oc1ncnc2[nH]ncc12` [Allopurinol (Zyloprim)] yielded a reporter virus infection of 77.
With `COc1cc(/C=C/C(=O)CC(=O)/C=C/c2ccc(O)c(OC)c2)ccc1O` [Curcumin] the figure was 56.3; with `NS(=O)(=O)c1cc(C(=O)O)c(NCc2ccco2)cc1Cl` [Furosemide (Lasix)], 34; with `Nc1ccc(O)c(C(=O)O)c1` [Mesalamine (Lialda)], 80.2.
To `CC1=C(/C=C/C(C)=C/C=C/C(C)=C/C(=O)O)C(C)(C)CCC1` [Tretinoin (Aberela)] belongs 88.4; to `Cc1nc2n(c(=O)c1CCN1CCC(c3noc4cc(F)ccc34)CC1)CCCC2O` (stereo not given) [Paliperidone (Invega)], 102; to `Cn1ccnc1S` [Methimazole (Tapazole, Northyx)], 68.4.
The molecule `Cc1ccccc1N1C(=O)c2cc(S(N)(=O)=O)c(Cl)cc2NC1C` (stereo not given) [Metolazone (Zaroxolyn)] returned a reporter virus infection of 71.2.
Turning to `Nc1ccc(S(N)(=O)=O)cc1` [Sulfanilamide], the reporter virus infection was determined as 79.5.
With `CC(C(=O)O)c1ccc(-c2ccccc2)c(F)c1` (stereo not given) [Flurbiprofen (Ansaid)] the figure was 81.1.
With `COC(=O)[C@H]1[C@H]2C[C@@H]3c4[nH]c5cc(OC)ccc5c4CCN3C[C@H]2C[C@@H](OC(=O)c2cc(OC)c(OC)c(OC)c2)[C@@H]1OC` [Reserpine] the figure was 12.2; with `C[C@]12CCC(=O)C=C1CC[C@@H]1[C@@H]2[C@@H](O)C[C@@]2(C)[C@H]1CC[C@]2(O)C(=O)CO` [Hydrocortisone (Cortisol)], 89.6; with `NCCCCCC(=O)O` [Aminocaproic acid (Amicar)], 80.2.
To `C[C@]12CC[C@@H]3c4ccc(O)cc4CC[C@H]3[C@@H]1CC[C@@H]2O` [Estradiol] belongs 98.2.
Molecule `CC1(C)O[C@@H]2C[C@H]3[C@@H]4CCC5=CC(=O)C=C[C@]5(C)[C@H]4[C@@H](O)C[C@]3(C)[C@]2(C(=O)CO)O1` [Desonide] displayed a reporter virus infection of 85.6.
In turn, `CCOC(=O)O[C@]1(C(=O)OCCl)CC[C@H]2[C@@H]3CCC4=CC(=O)C=C[C@]4(C)[C@H]3[C@@H](O)C[C@@]21C` [Loteprednol etabonate] returned a reporter virus infection of 46.2.
To `O=C1[C@H](CC[C@H](O)c2ccc(F)cc2)[C@@H](c2ccc(O)cc2)N1c1ccc(F)cc1` [Ezetimibe (Zetia)] belongs 91.8.
With `C[C@H]1C[C@H]2[C@@H]3CCC4=CC(=O)C=C[C@]4(C)[C@H]3C(=O)C[C@]2(C)[C@@]1(O)C(=O)CO` [Betapar (Meprednisone)] the figure was 101; with `Nc1ccn([C@H]2CC[C@@H](CO)O2)c(=O)n1` [Zalcitabine], 70.3; with `CCC(=O)OCC(=O)[C@@]1(OC(=O)CC)[C@@H](C)C[C@H]2[C@@H]3CCC4=CC(=O)C=C[C@]4(C)[C@@]3(F)[C@@H](O)C[C@@]21C` [Betamethasone Dipropionate (Diprolene)], 101.
With `NCCCC(O)(P(=O)(O)O)P(=O)(O)O` [Alendronate (Fosamax)] the figure was 74.5.
